Data: paper PMC12820563
Some of the results follow. The list includes weakly bound sequences.

These sequences were tested against T1, MBP-FoxP3dN (UniProt Q99JB6) (assay: PD-seq (MBP pull-down with sequencing)). Details: 20 mM Tris-HCl pH 7.5, 100 mM NaCl, 1.5 mM MgCl2, 0.4 uM protein, 0.1 uM dsDNA library, 30 min, room temperature, amylose pull-down; high values mean tight binding; double strand, one strand shown.
T1 sequence: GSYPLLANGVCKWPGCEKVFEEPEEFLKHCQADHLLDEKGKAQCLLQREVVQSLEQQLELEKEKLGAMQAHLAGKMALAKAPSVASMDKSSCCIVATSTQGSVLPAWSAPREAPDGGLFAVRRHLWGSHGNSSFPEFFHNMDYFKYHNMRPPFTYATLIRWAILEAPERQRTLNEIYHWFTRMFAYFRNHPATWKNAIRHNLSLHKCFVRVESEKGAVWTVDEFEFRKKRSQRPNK

Sequence | binding signal (RPM ratio (pull-down/input))
GATGATTGTTCTCCCAGCTGATGAATTGTGGTTGTCGAGTAAACAAATTTTCCTAATCTTTCTGTTCAAGCGCCATCTAC | 2.44
GATGATTGTTCTCCCAGCTGATGAATTACGACCGTCGAGTAAACAAATTTTCCTAATCTTTCTGTTCAAGCGCCATCTAC | 0.429
GATGATTGTTCTCCCAGCTGATGAATTAATGTGTTCGAGTAAACAAATTTTCCTAATCTTTCTGTTCAAGCGCCATCTAC | 1.77
GATGATTGTTCTCCCAGCTGATGAATTGCCCATCTCGAGTAAACAAATTTTCCTAATCTTTCTGTTCAAGCGCCATCTAC | 0.523
GATGATTGTTCTCCCAGCTGATGAATTGGGGCAGTCGAGTAAACAAATTTTCCTAATCTTTCTGTTCAAGCGCCATCTAC | 0.385
GATGATTGTTCTCCCAGCTGATGAATTACGTGACTCGAGTAAACAAATTTTCCTAATCTTTCTGTTCAAGCGCCATCTAC | 0.737
GATGATTGTTCTCCCAGCTGATGAATTTGGGATCTCGAGTAAACAAATTTTCCTAATCTTTCTGTTCAAGCGCCATCTAC | 0.452
GATGATTGTTCTCCCAGCTGATGAATTATTCTATTCGAGTAAACAAATTTTCCTAATCTTTCTGTTCAAGCGCCATCTAC | 0.374
GATGATTGTTCTCCCAGCTGATGAATTGAGAACTTCGAGTAAACAAATTTTCCTAATCTTTCTGTTCAAGCGCCATCTAC | 0.21
GATGATTGTTCTCCCAGCTGATGAATTGGGTAGCTCGAGTAAACAAATTTTCCTAATCTTTCTGTTCAAGCGCCATCTAC | 0.45
GATGATTGTTCTCCCAGCTGATGAATTCATATAGTCGAGTAAACAAATTTTCCTAATCTTTCTGTTCAAGCGCCATCTAC | 0.688
GATGATTGTTCTCCCAGCTGATGAATTTCTGGCATCGAGTAAACAAATTTTCCTAATCTTTCTGTTCAAGCGCCATCTAC | 0.698
GATGATTGTTCTCCCAGCTGATGAATTGGACTCGTCGAGTAAACAAATTTTCCTAATCTTTCTGTTCAAGCGCCATCTAC | 0.349
GATGATTGTTCTCCCAGCTGATGAATTCATGCACTCGAGTAAACAAATTTTCCTAATCTTTCTGTTCAAGCGCCATCTAC | 1.26
GATGATTGTTCTCCCAGCTGATGAATTCTACCAATCGAGTAAACAAATTTTCCTAATCTTTCTGTTCAAGCGCCATCTAC | 0.268
GATGATTGTTCTCCCAGCTGATGAATTCGCAATATCGAGTAAACAAATTTTCCTAATCTTTCTGTTCAAGCGCCATCTAC | 1.39
GATGATTGTTCTCCCAGCTGATGAATTGGGCTGCTCGAGTAAACAAATTTTCCTAATCTTTCTGTTCAAGCGCCATCTAC | 0.483
GATGATTGTTCTCCCAGCTGATGAATTACGTCTTTCGAGTAAACAAATTTTCCTAATCTTTCTGTTCAAGCGCCATCTAC | 0.702
GATGATTGTTCTCCCAGCTGATGAATTCACTGGGTCGAGTAAACAAATTTTCCTAATCTTTCTGTTCAAGCGCCATCTAC | 0.226
GATGATTGTTCTCCCAGCTGATGAATTGCCACAATCGAGTAAACAAATTTTCCTAATCTTTCTGTTCAAGCGCCATCTAC | 5.25

Sequence | binding signal (RPM ratio (pull-down/input))
GATGATTGTTCTCCCAGCTGATGAATTCCAGGCCTCGAGTAAACAAATTTTCCTAATCTTTCTGTTCAAGCGCCATCTAC | 0.422
GATGATTGTTCTCCCAGCTGATGAATTAAAGGTGTCGAGTAAACAAATTTTCCTAATCTTTCTGTTCAAGCGCCATCTAC | 0.396
GATGATTGTTCTCCCAGCTGATGAATTCTGCACCTCGAGTAAACAAATTTTCCTAATCTTTCTGTTCAAGCGCCATCTAC | 2.03
GATGATTGTTCTCCCAGCTGATGAATTAGAGTCTTCGAGTAAACAAATTTTCCTAATCTTTCTGTTCAAGCGCCATCTAC | 0.56
GATGATTGTTCTCCCAGCTGATGAATTTCAGCGCTCGAGTAAACAAATTTTCCTAATCTTTCTGTTCAAGCGCCATCTAC | 0.363
GATGATTGTTCTCCCAGCTGATGAATTAACAAATTCGAGTAAACAAATTTTCCTAATCTTTCTGTTCAAGCGCCATCTAC | 0.494
GATGATTGTTCTCCCAGCTGATGAATTTACGGCATCGAGTAAACAAATTTTCCTAATCTTTCTGTTCAAGCGCCATCTAC | 1.03
GATGATTGTTCTCCCAGCTGATGAATTGATTGGATCGAGTAAACAAATTTTCCTAATCTTTCTGTTCAAGCGCCATCTAC | 0.484
GATGATTGTTCTCCCAGCTGATGAATTTGTAGGTTCGAGTAAACAAATTTTCCTAATCTTTCTGTTCAAGCGCCATCTAC | 4.05
GATGATTGTTCTCCCAGCTGATGAATTTGCCTTGTCGAGTAAACAAATTTTCCTAATCTTTCTGTTCAAGCGCCATCTAC | 1.15
GATGATTGTTCTCCCAGCTGATGAATTACAACATTCGAGTAAACAAATTTTCCTAATCTTTCTGTTCAAGCGCCATCTAC | 1.94
GATGATTGTTCTCCCAGCTGATGAATTTCTTCCGTCGAGTAAACAAATTTTCCTAATCTTTCTGTTCAAGCGCCATCTAC | 0.183
GATGATTGTTCTCCCAGCTGATGAATTAAGGCTATCGAGTAAACAAATTTTCCTAATCTTTCTGTTCAAGCGCCATCTAC | 0.711
GATGATTGTTCTCCCAGCTGATGAATTATCTTTATCGAGTAAACAAATTTTCCTAATCTTTCTGTTCAAGCGCCATCTAC | 0.825
GATGATTGTTCTCCCAGCTGATGAATTGAGTACCTCGAGTAAACAAATTTTCCTAATCTTTCTGTTCAAGCGCCATCTAC | 0.541
GATGATTGTTCTCCCAGCTGATGAATTATACGCTTCGAGTAAACAAATTTTCCTAATCTTTCTGTTCAAGCGCCATCTAC | 0.584
GATGATTGTTCTCCCAGCTGATGAATTTTACAAATCGAGTAAACAAATTTTCCTAATCTTTCTGTTCAAGCGCCATCTAC | 0.24
GATGATTGTTCTCCCAGCTGATGAATTATGATTCTCGAGTAAACAAATTTTCCTAATCTTTCTGTTCAAGCGCCATCTAC | 1.48
GATGATTGTTCTCCCAGCTGATGAATTCTCCTGCTCGAGTAAACAAATTTTCCTAATCTTTCTGTTCAAGCGCCATCTAC | 0.233
GATGATTGTTCTCCCAGCTGATGAATTTCTGCAGTCGAGTAAACAAATTTTCCTAATCTTTCTGTTCAAGCGCCATCTAC | 0.531
